PubChem BioAssay AID1508624 (National Center for Advancing Translational Sciences (NCATS), 2021)
The campaign covered roughly 48,000 compounds. About 120 (0.25%) were called active. Inconclusive results (about 4%) are left out. Calls follow the shape of the dose curve; as a rule, active = well fitted activation curve with a large enough effect; inconclusive = small, poorly fitted or top-dose-only effect, or another doubt; inactive = no such curve, though single readings can be large or run the other way. Some of the results follow.

Assay: Primary qHTS for Identification of Small Molecule Activators of Huntingtin-Antisense Promoter Activity; also: nearly all actives have a fitted effect of over 55% in size
Settings: HEK293 HTT-AS promoter firefly luciferase reporter, 24 h; series mostly up to 57.5 µM; activity change, positive = activation: at the top concentration
How it was run: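 Firefly luciferase readout (Dual-Glo, 10 min RT) after 24 h, 37 °C compound exposure (final up to 57.5 uM) of HEK293 reporter cells cultured 24 h beforehand; PTC124 at 50 uM final as control inhibitor; activity scaled vehicle 0%, zero RLU -100%.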

Activity change, positive = activation, inactive:
COc1ccc(CCNC(=O)CSc2cc(=O)n(C)c3ccccc23)cc1OC 17.9%
COc1ccc(CCNC(=O)Cn2c(=O)c3sccc3n(CC(=O)Nc3cccc(C(F)(F)F)c3)c2=O)cc1OC -13.9%
Cc1ccc(-c2ncc(Cl)cc2-c2ccc(S(C)(=O)=O)cc2)cn1 -0.648%
O=C(NCc1cccc(Cl)c1)c1cnc(N2CCCCC2)c2ccccc12 -3.28%
Cc1cccc(N2CCN(c3ncnc4onc(C)c34)CC2)c1C -8%
CCc1ccc(C2N=C(N)Nc3nc4ccccc4n32)cc1 (stereo unspecified) -11.8%
COC(=O)c1cccc(Nc2c(-c3ccc(SC)cc3)nc3nc[nH]n23)c1 6.25%
Cc1ccc(-n2ncc(C(=O)NCCc3ccsc3)c2C2CCN(C(=O)OC(C)(C)C)CC2)c(C)c1 9.94%
O=C(CCCCCn1c(=O)[nH]c2ccccc2c1=O)NCCc1ccccc1 4.08%
COC(=O)[C@@H]1[C@H]2C[C@@H]3c4[nH]c5ccccc5c4CCN3C[C@@H]2CC[C@@H]1O -1.97%
COc1ccc(Cl)cc1NC(=O)CN(c1cccc(C)c1C)S(C)(=O)=O -23.9%
Cc1cccc(S(=O)(=O)c2cn(Cc3ccc(F)cc3)c3cc(N4CCCCC4)c(F)cc3c2=O)c1 -7.43%
COc1ccc(CN2C(=O)N(c3cccc(C)c3)C(=O)C2CC(=O)Nc2ccc(F)cc2)cc1OC (stereo unspecified) -14.7%
CN(Cc1ccccc1)C(=O)C(=O)Nc1ccc2nc3n(c(=O)c2c1)CCCCC3 -15.7%
Cc1ccc(CNC(=O)c2cc3cc(C)ccc3n2C)cc1 -26.3%
COc1ccc(-n2c(=O)c3ccc(C(=O)NCc4ccc(C)cc4)cc3n(CC(=O)Nc3cccc(F)c3)c2=O)cc1 -30.5%
CCOc1ccc(C2c3[nH]c4ccccc4c3CCN2C(=O)CSc2ccccc2)cc1 (stereo unspecified) -31.8%
Cc1ccc(NC(=O)CN2C(=O)COc3ccc(S(=O)(=O)N4CCCCC4)cc32)cc1Cl -21.1%
CCOc1cc(CNCCSc2nnnn2C)ccc1OCc1ccc(Cl)cc1Cl -33.9%
CCOC(=O)c1cc(NC(=O)c2ccc(C)cc2)c(=O)n2c1oc1ccccc12 -9.49%
COCCCNC(=O)Cn1c(=O)n(-c2ccccc2)c(=O)c2c1c1cc(OC)ccc1n2C -11.8%
CCCNC(=O)C1CCC(Cn2c(=O)c3sccc3n(CC(=O)N(CC)CC)c2=O)CC1 (stereo unspecified) -0.0426%
COc1ccc(NC(=O)Cn2nnnc2-c2ccccc2F)c(C)c1 -1.58%
COC(=O)c1ccc(NC(=O)CC2C(=O)N(c3cccc(F)c3)C(=O)N2CC(C)C)cc1 (stereo unspecified) -34.9%
Cc1ccc(-n2nc(C(=O)N3CCCCC3)c(=O)n(C)c2=O)cc1 -6.42%
CCCN(CCC)CCNC(=O)CS(=O)Cc1nc(-c2ccc(OC)c(OC)c2)oc1C (stereo unspecified) -10%
NCC(=O)O -4.06% [at 25.1 µM, percent change from vehicle, -100% = no light]
CN(C)c1ccc(C(=O)Nc2sc(Nc3ccccc3)nc2C(N)=O)cc1 -41.9%
COc1ccc(Cn2c(CCC(=O)Nc3ccc(Br)c(C)c3)nc3cccnc32)cc1 -23.2%
CCCCCn1c(=O)[nH]c2cc(C(=O)N3CCN(c4ccc(OC)cc4)CC3)ccc2c1=O -36.3%
O=C(Cn1nnc(-c2ccc(C(F)(F)F)cc2)n1)NCCc1ccccc1 -5.11%
Cc1cc(C)cc(NS(=O)(=O)c2cc3[nH]c(=O)c(=O)[nH]c3cc2C)c1 -8%
CCOC(=O)C1CCC(CN(Cc2ccc(OC)cc2)S(=O)(=O)c2ccc(C)cc2)CC1 (stereo unspecified) -38.6%
CCCC(=O)Oc1c(Sc2ccc(C)cc2)c(C)nn1-c1ccccc1 -15.9%
COc1cc(OC)c(C(=O)NCc2nc(-c3ccccc3)no2)cc1OC 6.63% [at 11.5 µM, percent change from vehicle, -100% = no light]
O=C(Nc1cc(Cl)cc(Cl)c1)c1ccc(F)c(S(=O)(=O)N2CCCC2)c1 -16.9%
CCc1ccc(CN(Cc2ccco2)c2cnc(S(C)(=O)=O)nc2C(=O)Nc2ccc(C)c(Cl)c2)cc1 -22%
Cc1ccc(NC(=O)CN(C)S(=O)(=O)c2cccc3cccnc23)c(C)c1 -10.5%
COc1ccc(Cn2c(SCc3ccc(C(=O)NC4CCCCC4)cc3)nc3cccnc32)cc1 -34.4%
CC(=O)Nc1ccc2nc(SCCOc3ccc(C)cc3)sc2c1 -6.95%
COc1ccc(NC(=O)c2sc3nc(C)c(C(=O)Nc4ccc(C)cc4C)c(-c4sccc4C)c3c2N)cc1 -15.1%
CC1CCc2c(N3CCC(O)CC3)c(F)cc3c(=O)c(C(=O)O)cn1c23 (stereo unspecified) -5.35%
COc1ccccc1-c1cc(C(F)(F)F)nc(S(=O)(=O)CCCC(=O)Nc2ccccc2F)n1 -94.8%
CCc1c(CN2CCN(c3ccc(F)cc3)CC2)csc1C -19.5%
Cc1ccc(CN2CCC(CNC(=O)Nc3ccccc3F)CC2)cc1 -7.84%
COc1ccc(C)cc1Nc1nc2c(S(=O)(=O)c3cc(C)ccc3C)nnn2c2ccsc12 -8.56%
COCCNc1nc2c(S(=O)(=O)c3ccccc3)nnn2c2ccc(Cl)cc12 -2.79%
COc1cc2c(cc1NC(=O)COc1cc(C)cc(C)c1)oc1ccccc12 9.91%
Cc1cccc(-c2nc3cc(NC(=O)c4ccc(OCC(C)C)cc4)ccc3o2)c1 -4.1%
Cc1ccn2c(c1)nc(=O)c1cc(S(=O)(=O)N3CCCCC3)ccc12 -1.17%
COc1ccc(NC(=O)c2cnc(N3CCOCC3)c3ccccc23)cc1OC -25%
COc1cccc(CCNC(=O)c2ccc(Cn3c(SCc4ccccc4)nc4cccnc43)cc2)c1 -13.2%
CCOc1ccc(NC(=O)NC(C)c2c(-n3cccc3)sc3c2CCN(CC)C3)cc1 (stereo unspecified) 1.4%
Cc1cccn2c(=O)c3cc(C(=O)NC(C)C)n(C)c3nc12 1.46%
O=C(Nc1ccc2nc(SCCOc3ccccc3)sc2c1)c1ccco1 0.597%
COc1ccc(-c2nc3ccccc3n2Cc2ccc(C(C)C)cc2)cc1 -22.7%
Cc1ccccc1NC(=O)C1CCN(C(=O)c2ccc(F)cc2)CC1 -3.81%
CCOc1ccc(NC(=O)Cn2cc(C(=O)c3ccc(F)cc3)c(=O)c3cc4c(cc32)OCO4)cc1 -11.2%
Cc1nn2c(=O)cc(COC(=O)c3ccc(NC(=O)CCc4ccccc4)cc3)nc2s1 11.9%
Cc1cccc(OCCn2c(SCC(N)=O)nc3ccccc32)c1 1.82%
COc1ccc(CCNC(=O)C(=O)NCC(c2ccco2)S(=O)(=O)c2cccs2)cc1 (stereo unspecified) -22.7%
CCC(Sc1nc2cc3c(cc2c(=O)n1CCCCCC(=O)NCc1ccc2c(c1)OCO2)OCO3)C(=O)NCCCOC (stereo unspecified) -3.98%
CC(C)C(=O)Nc1ccccc1C(=O)OCc1cc(=O)n2nc(C3CC3)sc2n1 -24.2%
O=C(Nc1cccc(Br)c1)Nc1nc2c(s1)CCCCCC2 -1.66%
O=C(CN1C(=O)c2cccnc2Oc2ccc(Cl)cc21)NCCCN1CCCCC1 -5.57%
COc1cc2c(C(=O)N3CCN(c4cccc(Cl)c4)CC3)cn(C)c(=O)c2cc1OC -32.2%
CCOc1ccccc1C(=O)N1CCN(CCc2ccccn2)CC1 2.43% [at 11.5 µM, percent change from vehicle, -100% = no light]
Cc1ccc(C2=Nc3ccccc3N(CC(=O)Nc3ccccc3C)C(=O)C2)cc1C 25.9%
Cc1ccc(CNC(=O)NC2COc3ccccc3C2)cc1 (stereo unspecified) 0.672%
Cc1c(Cl)cccc1NC(=O)Cn1nc(C(F)(F)F)c2c1CCC2 -17.8%
Cc1cc(C)c(NC(=O)Cn2c(=O)n(CCc3ccccc3)c(=O)c3ccccc32)c(C)c1 -5.07%
Cc1ccc(N2CCn3c2nc2c3c(=O)n(CCCc3ccccc3)c(=O)n2C)cc1 -11.7%
COc1ccc(OC)c(CNC(=O)c2ccccc2NC(=O)c2nsc3ccccc23)c1 1.33%
Clc1ccc(COC(Cn2ccnc2)c2ccc(Cl)cc2Cl)c(Cl)c1 (stereo unspecified) -22.2%
COc1ccc(CCNC(=O)c2c(C)oc3nc(C)nc(N4CCOCC4)c23)cc1OC -2.28%
Cc1cc(C)n(-c2nc3ccccc3nc2Nc2cccc(C(=O)NCCc3ccccc3)c2)n1 -1.33%
Cc1ccc(NC(=O)C2CCCN(S(=O)(=O)c3cccc4cccnc34)C2)c(Br)c1 (stereo unspecified) -17.1%
CC1=C(C(=O)Nc2ccccc2)C(c2cccc(O)c2)n2nc(-c3ccccc3Cl)nc2N1 (stereo unspecified) -24%
Cn1cc(S(=O)(=O)N2CCCCCC2)cc1C(=O)NCc1ccc(Cl)cc1 -38%
Cc1onc(-c2ccccc2Cl)c1C(=O)Oc1ccc(Br)cc1 -14.9%
CCN1CCOC(=O)C1CC(=O)Nc1cccc(OC)c1 (stereo unspecified) -16%
Cc1ccc(-n2nnnc2CNC(=O)c2ccc(F)cc2)cc1C -10.6%
COc1ccccc1-c1nn2c(=O)cc(CN3CCN(S(=O)(=O)c4ccc(C)cc4)CC3)nc2s1 -7.46%
Cc1cc(=O)n(-c2ccccc2)n1C 3.74%
CCOC(=O)c1ccc(NC(=O)C2Cc3ccccc3C(=O)O2)cc1 (stereo unspecified) 18.6%
Cc1cccc(-c2noc(CNC(=O)c3ccco3)n2)c1 2.16%
Brc1ccc(CNCCCSc2nnnn2-c2ccccc2)cc1 -16.6%
CC(=O)Nc1ccc(C)cc1-c1nc2ccccc2n(CC(=O)c2ccc(Cl)cc2)c1=O -11.3%
CC(=O)N(Cc1cccnc1)c1nc2ccc(F)cc2s1 2.37%
COc1cccc2cc(-c3cn4c(n3)sc3cc(F)ccc34)c(=O)oc12 -1.83%
CCOc1ccc(-c2noc(CSc3nnc(-c4ccccc4)n3-c3ccccc3)n2)cc1 -38.3%
O=C(CCn1c(=O)c2cccn2c2cccnc21)NCc1ccccc1Br -6.54%
CN1C(=O)c2ccccc2Sc2ccc(NC(=O)Cc3c(F)cccc3Cl)cc21 -41.5%
CCC(CC)C(=O)Nc1ccc(C(=O)OCc2cc(=O)n3nc(C4CC4)sc3n2)cc1 14.1%
CCC(=O)Nc1ccc(C)cc1-c1nc2ccccc2n(C(C)C(=O)Nc2ccccc2CC)c1=O (stereo unspecified) -20.6%
Cc1ccc(-n2nc(C(=O)N3CCN(c4ccccc4F)CC3)c3c4ccccc4n(C)c3c2=O)cc1 3.32%
